From the supplement of paper PMC11876631
± gives the standard deviation of the averaged measurements. Laboratory Escherichia coli strains with one amino-acid change in an essential protein, pooled on minimal glucose agar with carbenicillin or gentamicin at twice the control MIC (plus kanamycin and chloramphenicol for the plasmids), 48 h. Fold change of barcode share against drug-free plates; higher = less susceptible. Active = above 20 in both replicates (the paper's putatively resistant). '<' = one read or none on drug, '>' = one read or none on a drug-free plate. Shares are relative, so most strains fall below 1 when a few take over. Listed are strains with at least 15 reads on both drug-free plates, and hits; most hits rest on fewer reference reads. Replicate rank correlation about 0.5. Edits are read from barcodes.

B1: cysJ I570W (protein)
chain: MTTQVPPSALLPLNPEQLARLQAATTDLTPTQLAWVSGYFWGVLNQQPAALAATPAPAAEMPGITIISASQTGNARRVAEALRDDLLAAKLNVKLVNAGDYKFKQIASEKLLIVVTSTQGEGEPPEEAVALHKFLFSKKAPKLENTAFAVFSLGDSSYEFFCQSGKDFDSKLAELGGERLLDRVDADVEYQAAASEWRARVVDALKSRAPVAAPSQSVATGAVNEIHTSPYSKDAPLVASLSVNQKITGRNSEKDVRHIEIDLGDSGMRYQPGDALGVWYQNDPALVKELVELLWLKGDEPVTVEGKTLPLNEALQWHFELTVNTANIVENYATLTRSETLLPLVGDKAKLQHYAATTPIVDMVRFSPAQLDAEALINLLRPLTPRLYSIASSQAEVENEVHVTVGVVRYDVEGRARAGGASSFLADRVEEEGEVRVFIEHNDNFRLPANPETPVIMIGPGTGIAPFRAFMQQRAADEAPGKNWLFFGNPHFTEDFLYQVEWQRYVKDGVLTRIDLAWSRDQKEKVYVQDKLREQGAELWRWINDGAHIYVCGDANRMAKDVEQALLEVWAEFGGMDTEAADEFLSELRVERRYQRDVY
B2: cysJ V364D (protein)
chain: MTTQVPPSALLPLNPEQLARLQAATTDLTPTQLAWVSGYFWGVLNQQPAALAATPAPAAEMPGITIISASQTGNARRVAEALRDDLLAAKLNVKLVNAGDYKFKQIASEKLLIVVTSTQGEGEPPEEAVALHKFLFSKKAPKLENTAFAVFSLGDSSYEFFCQSGKDFDSKLAELGGERLLDRVDADVEYQAAASEWRARVVDALKSRAPVAAPSQSVATGAVNEIHTSPYSKDAPLVASLSVNQKITGRNSEKDVRHIEIDLGDSGMRYQPGDALGVWYQNDPALVKELVELLWLKGDEPVTVEGKTLPLNEALQWHFELTVNTANIVENYATLTRSETLLPLVGDKAKLQHYAATTPIVDMDRFSPAQLDAEALINLLRPLTPRLYSIASSQAEVENEVHVTVGVVRYDVEGRARAGGASSFLADRVEEEGEVRVFIEHNDNFRLPANPETPVIMIGPGTGIAPFRAFMQQRAADEAPGKNWLFFGNPHFTEDFLYQVEWQRYVKDGVLTRIDLAWSRDQKEKVYVQDKLREQGAELWRWINDGAHIYVCGDANRMAKDVEQALLEVIAEFGGMDTEAADEFLSELRVERRYQRDVY
B3: cysJ V364Q (protein)
chain: MTTQVPPSALLPLNPEQLARLQAATTDLTPTQLAWVSGYFWGVLNQQPAALAATPAPAAEMPGITIISASQTGNARRVAEALRDDLLAAKLNVKLVNAGDYKFKQIASEKLLIVVTSTQGEGEPPEEAVALHKFLFSKKAPKLENTAFAVFSLGDSSYEFFCQSGKDFDSKLAELGGERLLDRVDADVEYQAAASEWRARVVDALKSRAPVAAPSQSVATGAVNEIHTSPYSKDAPLVASLSVNQKITGRNSEKDVRHIEIDLGDSGMRYQPGDALGVWYQNDPALVKELVELLWLKGDEPVTVEGKTLPLNEALQWHFELTVNTANIVENYATLTRSETLLPLVGDKAKLQHYAATTPIVDMQRFSPAQLDAEALINLLRPLTPRLYSIASSQAEVENEVHVTVGVVRYDVEGRARAGGASSFLADRVEEEGEVRVFIEHNDNFRLPANPETPVIMIGPGTGIAPFRAFMQQRAADEAPGKNWLFFGNPHFTEDFLYQVEWQRYVKDGVLTRIDLAWSRDQKEKVYVQDKLREQGAELWRWINDGAHIYVCGDANRMAKDVEQALLEVIAEFGGMDTEAADEFLSELRVERRYQRDVY
B4: cysJ V364W (protein)
chain: MTTQVPPSALLPLNPEQLARLQAATTDLTPTQLAWVSGYFWGVLNQQPAALAATPAPAAEMPGITIISASQTGNARRVAEALRDDLLAAKLNVKLVNAGDYKFKQIASEKLLIVVTSTQGEGEPPEEAVALHKFLFSKKAPKLENTAFAVFSLGDSSYEFFCQSGKDFDSKLAELGGERLLDRVDADVEYQAAASEWRARVVDALKSRAPVAAPSQSVATGAVNEIHTSPYSKDAPLVASLSVNQKITGRNSEKDVRHIEIDLGDSGMRYQPGDALGVWYQNDPALVKELVELLWLKGDEPVTVEGKTLPLNEALQWHFELTVNTANIVENYATLTRSETLLPLVGDKAKLQHYAATTPIVDMWRFSPAQLDAEALINLLRPLTPRLYSIASSQAEVENEVHVTVGVVRYDVEGRARAGGASSFLADRVEEEGEVRVFIEHNDNFRLPANPETPVIMIGPGTGIAPFRAFMQQRAADEAPGKNWLFFGNPHFTEDFLYQVEWQRYVKDGVLTRIDLAWSRDQKEKVYVQDKLREQGAELWRWINDGAHIYVCGDANRMAKDVEQALLEVIAEFGGMDTEAADEFLSELRVERRYQRDVY
B5: cysJ M363W (protein)
chain: MTTQVPPSALLPLNPEQLARLQAATTDLTPTQLAWVSGYFWGVLNQQPAALAATPAPAAEMPGITIISASQTGNARRVAEALRDDLLAAKLNVKLVNAGDYKFKQIASEKLLIVVTSTQGEGEPPEEAVALHKFLFSKKAPKLENTAFAVFSLGDSSYEFFCQSGKDFDSKLAELGGERLLDRVDADVEYQAAASEWRARVVDALKSRAPVAAPSQSVATGAVNEIHTSPYSKDAPLVASLSVNQKITGRNSEKDVRHIEIDLGDSGMRYQPGDALGVWYQNDPALVKELVELLWLKGDEPVTVEGKTLPLNEALQWHFELTVNTANIVENYATLTRSETLLPLVGDKAKLQHYAATTPIVDWVRFSPAQLDAEALINLLRPLTPRLYSIASSQAEVENEVHVTVGVVRYDVEGRARAGGASSFLADRVEEEGEVRVFIEHNDNFRLPANPETPVIMIGPGTGIAPFRAFMQQRAADEAPGKNWLFFGNPHFTEDFLYQVEWQRYVKDGVLTRIDLAWSRDQKEKVYVQDKLREQGAELWRWINDGAHIYVCGDANRMAKDVEQALLEVIAEFGGMDTEAADEFLSELRVERRYQRDVY
B6: cysJ M457W (protein)
chain: MTTQVPPSALLPLNPEQLARLQAATTDLTPTQLAWVSGYFWGVLNQQPAALAATPAPAAEMPGITIISASQTGNARRVAEALRDDLLAAKLNVKLVNAGDYKFKQIASEKLLIVVTSTQGEGEPPEEAVALHKFLFSKKAPKLENTAFAVFSLGDSSYEFFCQSGKDFDSKLAELGGERLLDRVDADVEYQAAASEWRARVVDALKSRAPVAAPSQSVATGAVNEIHTSPYSKDAPLVASLSVNQKITGRNSEKDVRHIEIDLGDSGMRYQPGDALGVWYQNDPALVKELVELLWLKGDEPVTVEGKTLPLNEALQWHFELTVNTANIVENYATLTRSETLLPLVGDKAKLQHYAATTPIVDMVRFSPAQLDAEALINLLRPLTPRLYSIASSQAEVENEVHVTVGVVRYDVEGRARAGGASSFLADRVEEEGEVRVFIEHNDNFRLPANPETPVIWIGPGTGIAPFRAFMQQRAADEAPGKNWLFFGNPHFTEDFLYQVEWQRYVKDGVLTRIDLAWSRDQKEKVYVQDKLREQGAELWRWINDGAHIYVCGDANRMAKDVEQALLEVIAEFGGMDTEAADEFLSELRVERRYQRDVY
B7: cysJ V364P (protein)
chain: MTTQVPPSALLPLNPEQLARLQAATTDLTPTQLAWVSGYFWGVLNQQPAALAATPAPAAEMPGITIISASQTGNARRVAEALRDDLLAAKLNVKLVNAGDYKFKQIASEKLLIVVTSTQGEGEPPEEAVALHKFLFSKKAPKLENTAFAVFSLGDSSYEFFCQSGKDFDSKLAELGGERLLDRVDADVEYQAAASEWRARVVDALKSRAPVAAPSQSVATGAVNEIHTSPYSKDAPLVASLSVNQKITGRNSEKDVRHIEIDLGDSGMRYQPGDALGVWYQNDPALVKELVELLWLKGDEPVTVEGKTLPLNEALQWHFELTVNTANIVENYATLTRSETLLPLVGDKAKLQHYAATTPIVDMPRFSPAQLDAEALINLLRPLTPRLYSIASSQAEVENEVHVTVGVVRYDVEGRARAGGASSFLADRVEEEGEVRVFIEHNDNFRLPANPETPVIMIGPGTGIAPFRAFMQQRAADEAPGKNWLFFGNPHFTEDFLYQVEWQRYVKDGVLTRIDLAWSRDQKEKVYVQDKLREQGAELWRWINDGAHIYVCGDANRMAKDVEQALLEVIAEFGGMDTEAADEFLSELRVERRYQRDVY
B8: cysJ V364A (protein)
chain: MTTQVPPSALLPLNPEQLARLQAATTDLTPTQLAWVSGYFWGVLNQQPAALAATPAPAAEMPGITIISASQTGNARRVAEALRDDLLAAKLNVKLVNAGDYKFKQIASEKLLIVVTSTQGEGEPPEEAVALHKFLFSKKAPKLENTAFAVFSLGDSSYEFFCQSGKDFDSKLAELGGERLLDRVDADVEYQAAASEWRARVVDALKSRAPVAAPSQSVATGAVNEIHTSPYSKDAPLVASLSVNQKITGRNSEKDVRHIEIDLGDSGMRYQPGDALGVWYQNDPALVKELVELLWLKGDEPVTVEGKTLPLNEALQWHFELTVNTANIVENYATLTRSETLLPLVGDKAKLQHYAATTPIVDMARFSPAQLDAEALINLLRPLTPRLYSIASSQAEVENEVHVTVGVVRYDVEGRARAGGASSFLADRVEEEGEVRVFIEHNDNFRLPANPETPVIMIGPGTGIAPFRAFMQQRAADEAPGKNWLFFGNPHFTEDFLYQVEWQRYVKDGVLTRIDLAWSRDQKEKVYVQDKLREQGAELWRWINDGAHIYVCGDANRMAKDVEQALLEVIAEFGGMDTEAADEFLSELRVERRYQRDVY
B9: cysJ M363A (protein)
chain: MTTQVPPSALLPLNPEQLARLQAATTDLTPTQLAWVSGYFWGVLNQQPAALAATPAPAAEMPGITIISASQTGNARRVAEALRDDLLAAKLNVKLVNAGDYKFKQIASEKLLIVVTSTQGEGEPPEEAVALHKFLFSKKAPKLENTAFAVFSLGDSSYEFFCQSGKDFDSKLAELGGERLLDRVDADVEYQAAASEWRARVVDALKSRAPVAAPSQSVATGAVNEIHTSPYSKDAPLVASLSVNQKITGRNSEKDVRHIEIDLGDSGMRYQPGDALGVWYQNDPALVKELVELLWLKGDEPVTVEGKTLPLNEALQWHFELTVNTANIVENYATLTRSETLLPLVGDKAKLQHYAATTPIVDAVRFSPAQLDAEALINLLRPLTPRLYSIASSQAEVENEVHVTVGVVRYDVEGRARAGGASSFLADRVEEEGEVRVFIEHNDNFRLPANPETPVIMIGPGTGIAPFRAFMQQRAADEAPGKNWLFFGNPHFTEDFLYQVEWQRYVKDGVLTRIDLAWSRDQKEKVYVQDKLREQGAELWRWINDGAHIYVCGDANRMAKDVEQALLEVIAEFGGMDTEAADEFLSELRVERRYQRDVY
B10: acpS V11Q (protein)
chain: MAILGLGTDIQEIARIEAVIARSGDRLARRVLSDNEWAIWKTHHQPVRFLAKRFAVKEAAAKAFGTGIRNGLAFNQFEVFNDELGKPRLRLWGEALKLAEKLGVANMHVTLADERHYACATVIIES

The proteins below were run against Escherichia coli (laboratory strain) (assay: barcode share on antibiotic plates over drug-free plates; higher = less susceptible). Details: antibiotic: carbenicillin; 2× MIC (3.1 µg/mL).
Method: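 A pool of E. coli strains, each edited to carry one amino-acid change in an essential protein, was grown for 48 h on minimal glucose agar with or without antibiotic; strain barcodes were sequenced; mean of two replicates.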

Row | Protein | fold change of barcode share
1 | B1 | 0.321 ± 0.011
2 | B2 | 0.418 ± 0.043
3 | B3 | 0.324 ± 0.071
4 | B4 | 0.657 ± 0.47
5 | B5 | 0.405 ± 0.0068
6 | B6 | 0.391 ± 0.12
7 | B7 | 0.301 ± 0.0072
8 | B8 | 0.19 ± 0.09
9 | B9 | 0.492 ± 0.29
10 | B10 | 0.245 ± 0.0063

Same assay, conditions: antibiotic: gentamicin; 2× MIC (MIC 0.45 µg/mL)

Row | Protein | fold change of barcode share
11 | B2 | 0.0405 ± 0.024
12 | B3 | < 0.0139
13 | B4 | < 0.00938
14 | B5 | 0.0182 ± 0.0035
15 | B7 | < 0.0091
16 | B8 | 0.0225 ± 0.0055
17 | B9 | 0.0206 ± 0.016
18 | B10 | 0.00542 ± 0.0043
